Laboratory results from the supplement of paper PMC12217912.
The other results are listed elsewhere or left out. The full chains were built here from the parent and the listed change. Values near 0.05 are background.

B1: TEV protease; numbered along this chain (parent)
chain: MGESLFKGPRDYNPISSSICHLTNESDGHTTSLYGIGFGPFIITNKHLFRRNNGTLVVQSLHGVFKVKDTTTLQQHLVDGRDMIIIRMPKDFPPFPQKLKFREPQREERICLVTTNFQTKSMSSMVSDTSCTFPSGDGIFWKHWIQTKDGQCGSPLVSTRDGFIVGIHSASNFTNTNNYFTSVPKNFMELLTNQEAQQWVSGWRLNADSVLWGGHKVFMVKPEEPFQPVKEATQL
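Note: Bxb1 expression induced with 0.2% (w/v) L-rhamnose at OD600 near 0.5, cultures sampled hourly, flipped fraction per protease–substrate barcode pair counted by paired-end Illumina sequencing.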

Variants of: B1
Experiment: raw area under fraction-flipped curve 0-4 h after induction (AUC4h, not background-subtracted), DNA-recorder readout of cleavage of the substrate (dimensionless); higher = more cleavage of the substrate by the protease variant
Details: temperature: 34 °C; time window: 0-4 h after rhamnose induction
For V64H, the “area with substrate ENLYTQS” value was 0.0869.
For T119F, the “area with substrate ENLYKQS” value was 0.0754, the “area with substrate ENLYNQS” value was 0.0694 and the “area with substrate ENLYPQS” value was 0.0982. For the same variant, the “area with substrate ENLYQQS” value was 0.0657, the “area with substrate ENLYRQS” value was 0.0642 and the “area with substrate ENLYWQS” value was 0.0783.
In the case of T119E, the “area with substrate ENLYHQS” value is reported as 0.0511, the “area with substrate ENLYKQS” value is reported as 0.0569 and the “area with substrate ENLYMQS” value is reported as 0.0661. For the same variant, the “area with substrate ENLYNQS” value was 0.056, the “area with substrate ENLYPQS” value was 0.0864 and the “area with substrate ENLYQQS” value was 0.0622. The “area with substrate ENLYRQS” value was 0.0783, the “area with substrate ENLYSQS” value was 0.11 and the “area with substrate ENLYYQS” value was 0.0635.
With G35E the “area with substrate ENLYHQS” value was 0.0476, the “area with substrate ENLYIQS” value was 0.0529 and the “area with substrate ENLYLQS” value was 0.0471. The “area with substrate ENLYMQS” value was 0.0333, the “area with substrate ENLYNQS” value was 0.0513 and the “area with substrate ENLYSQS” value was 0.0391. The “area with substrate ENLYYQS” value was 0.0317.
With K120T the “area with substrate ENLYIQS” value was 0.111, the “area with substrate ENLYLQS” value was 0.0943 and the “area with substrate ENLYNQS” value was 0.0468. For the same variant, the “area with substrate ENLYRQS” value was 0.068 and the “area with substrate ENLYVQS” value was 0.115.
In the case of R106K, the “area with substrate ENLYHQS” value is reported as 0.116, the “area with substrate ENLYLQS” value is reported as 0.0679 and the “area with substrate ENLYMQS” value is reported as 0.098. The “area with substrate ENLYNQS” value was 0.0685 and the “area with substrate ENLYWQS” value was 0.111.
For F95M, the “area with substrate ENLYMQS” value was 0.0703, the “area with substrate ENLYNQS” value was 0.0749 and the “area with substrate ENLYVQS” value was 0.122. The “area with substrate ENLYWQS” value was 0.0644.
With G8W the “area with substrate ENLYKQS” value was 0.0671, the “area with substrate ENLYNQS” value was 0.0521 and the “area with substrate ENLYPQS” value was 0.0796. For the same variant, the “area with substrate ENLYTQS” value was 0.0687 and the “area with substrate ENLYWQS” value was 0.0729.
With D208L the “area with substrate ENLYHQS” value was 0.0638, the “area with substrate ENLYKQS” value was 0.0672 and the “area with substrate ENLYNQS” value was 0.0847. For the same variant, the “area with substrate ENLYPQS” value was 0.0205, the “area with substrate ENLYQQS” value was 0.0506 and the “area with substrate ENLYSQS” value was 0.0673. The “area with substrate ENLYYQS” value was 0.047.
With V200Q the “area with substrate ENLYHQS” value was 0.0822, the “area with substrate ENLYMQS” value was 0.0843 and the “area with substrate ENLYNQS” value was 0.0748. The “area with substrate ENLYTQS” value was 0.0698 and the “area with substrate ENLYWQS” value was 0.0748.
With V200G the “area with substrate ENLYHQS” value was 0.0599, the “area with substrate ENLYMQS” value was 0.0574 and the “area with substrate ENLYPQS” value was 0.0596. The “area with substrate ENLYVQS” value was 0.0852, the “area with substrate ENLYWQS” value was 0.0457 and the “area with substrate ENLYYQS” value was 0.0566.
